Results as given in the supplement of paper PMC11417369.
The other results are listed elsewhere or left out.

Test system: PfAP2-HC AP2 domain (GST-tagged)
Experiment: gcPBM binding intensity (ln(normalized median fluorescence intensity)); higher = stronger DNA binding
Procedure, shortened: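 Plasmodium falciparum DNA-binding domains carrying a GST tag were expressed in E. coli and applied for 1 h, at about 25 μg on average, to an Agilent 4 × 180k array. The array held primer-extended double-stranded 36-bp intergenic genomic probes together with negative controls, and binding took place in 1× PBS with 1% milk, 0.2 mg/ml BSA, 0.5% salmon testes DNA and 0.03% Triton X-100. An Alexa488 anti-GST antibody detected bound protein, and the array was scanned at 488 nm. Binding intensity is taken as the highest Masliner-normalised natural-log median intensity across replicate spots of either probe orientation.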

Sequence | gcPBM binding intensity (ln)
AGACATAAGATAATTACACACAATACATCCCTATAT [CACACA_site2227] | 10.2
AATAAAAATTTACTTTGTACACATATTAAATTCAAT [XGTACX_site1957] | 9.5
TACTTCTACAAGAGAAGTACAATATTTTTTATATTA [XGTACX_site8351] | 9.41
GTGTGTTGTATATACTGTACATACTTTATATATAGT [XGTACX_site1876] | 10.4
TATAACAAGTAATGTTGTACATTGTATTATGTAATA [XGTACX_site6372] | 9.65
AAATGTGTTTATTTAACACACAAAAGAAAAAATATA [CACACA_site6993] | 10.1
AATGTAAAATATATGTGTACATATGTTTATATATAT [XGTACX_site2216] | 9.84
AAAAAACTTTTAAGCACACACATAGATAATATAGAT [CACACA_site6835] | 10.4
TTCCCTTTTGTAAAATGTACATATATATTTAAACAA [XGTACX_site3263] | 9.56
TTTTTATTAAAATGTATTTTAGGAAAAAACAAAAAA [XGTACX_negctrl_site437] | 9.36
TAAGTTCCCTTTGAATGTACATATAATGAAAAGAAA [XGTACX_site826] | 9.51
AATATTAACAATCGCACACATATTATTTTTCCAAAA [CACACA_site4982] | 9.82
TGAAATGGAAACAACTGTACAAAATAAATATGATAT [XGTACX_site1311] | 9.85
ATATAAATATAGCATACACACAAAAAAATAAAATAA [CACACA_site2333] | 10.1
TTTTTTTTTTTTGTCACACATATTTGTATTAATCAT [CACACA_site5235] | 9.66
AAATGAAATAAATGTAGTACACATATACAATATATA [XGTACX_site6951] | 9.83
TGTATATCATATATTTGTACTCAATTAATATAAACA [XGTACX_site3970] | 9.36
TATGGAAGAAAATATACACACAAAAAAAAAAAATGT [CACACA_site1486] | 10.2
ATACTTTTATTTTTGGTGCATATATCATGTAGACGT | 9.64
AATTTATTATTTGTATGTACTCATATGATTCACTTA [XGTACX_site2797] | 9.69
TATTAATTTTTAAACATAATTTTTCGTATAATATAT [CACACA_negctrl_site762] | 9.52
GAGATAAAATAAAACACACACATATATTTATATAAC [CACACA_site7098] | 10.9

Sequence | gcPBM binding intensity (ln)
TTTACTTTCTTATTTTCACACATTTAAAAAAAAATT [CACACA_site5949] | 9.5
ACATCTAATTTGTATACACACAATAATAAATGGTGA [CACACA_site824] | 9.67
TATATATATTTATAATGTACATATTTTTTTTTATTT [XGTACX_site4761] | 9.81
TTGTATATATGACTTTTTTATATTTCAATTTTGTGC [CACACA_negctrl_site296] | 9.57
AAGGAGATAATTTATTGTACATATAATAAATGAACA [XGTACX_site6252] | 9.62
TCTTACAAAAAAAAAAAAAAATAAAATAAAATATAT [CACACA_negctrl_site1575] | 9.32
TTAATATTATGTTAAAGTACTTTATATATATATAAT [XGTACX_site2646] | 9.43
ATCTTATATATACGTTGTACTACAGGATATGTCATA [XGTACX_site5734] | 9.68
TTCATTTACCCTTATTAACACACAAAATATAATACG [CACACA_site8821] | 9.75
TGTATATTATAAGATAGTACATATATATAATATATA [XGTACX_site1297] | 9.48
ATAAATATCATATATATACACACGTAATACATAATA [CACACA_site4001] | 9.84
TTACTTGTTTATTTTATTTTTTTTTTTTTTTTGTTA [TGCATGCA_negctrl_site266] | 9.39
AGTGAGAAATACATAATAATACATTATGTGCATATT [XGTACX_negctrl_site247] | 9.75
AAGAATATTTTTTTCTGTACATATAATTTATATACG [XGTACX_site5801] | 9.3
GTACACATATATATATATATATATATATATATATTA [CACACA_negctrl_site1580] | 9.7
ATATTAAGAATATATACACACATAAGTATTGTATAT [CACACA_site6110] | 9.84
TATTCGTGCAATAGTAGTACACTTATAAATTATTCT [XGTACX_site4899] | 9.58
ATAAAATAAAATAAATGTACACGAAAAAAAATATTT [XGTACX_site3747] | 10.1
GTTGGTAGATTTATTTGTACATATGTATCATATTAT [XGTACX_site7135] | 9.93
AAAAATTTATTTTGTTTTTTAAGATTTTTTTTTTTT [CACACA_negctrl_site1210] | 8.89
TAATTACAAAAACATACACACAAAAAAAAAAAAAAA [CACACA_site3782] | 9.67
ACATACATATATATACGTACATATATATTTATATAT [XGTACX_site5799] | 9.88
